# The list shows a part of the results.
# B1: CBM13 2a (Mycobacterium tuberculosum), P64849 (protein)
# chain: DGPVQLKSRLGDVCLDAPSGSWFSPLVINPCNGTDFQRWNLTDDRQVESVAFPGECVNIGNALWARLQPCVNWISQHWTVQPDGLVKSDLDACLTVLGGPDPGTWVSTRWCDPNAPDQQWDSVPLEHHHHHH
# Assays:
# Assay in all cases: glycan array binding signal (z-score within array); higher = stronger binding
# Conditions in all cases: glycan notation: IUPAC condensed, linker removed
# [1] = target: Neu5Ac(a2-3)Gal(b1-3)[Fuc(a1-4)]GlcNAc
# Summary of the method: (§1)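 The binding signal is a Z-score computed within each array. Data were drawn from 3228 arrays in the Consortium for Functional Glycomics database, restricted to those with a known protein sequence. Scores were averaged over arrays of the same protein sequence at different concentrations or buffers, and over linkers, and negative values can be taken as non-binding.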
# [2] = target: Neu5Ac(a2-3)Gal(b1-3)[Fuc(a1-4)]GlcNAc(b1-3)Gal(b1-3)[Fuc(a1-4)]GlcNAc
# Summary of the method: as §1
# [3] = target: Neu5Ac(a2-3)Gal(b1-3)[Fuc(a1-4)]GlcNAc(b1-3)Gal(b1-4)[Fuc(a1-3)]GlcNAc
# Summary of the method: as §1
# [4] = target: Neu5Ac(a2-3)Gal(b1-3)[GlcNAc(b1-6)]GalNAc
# Summary of the method: as §1
# [5] = target: Neu5Ac(a2-3)Gal(b1-3)[Neu5Ac(a2-6)]GalNAc
# Summary of the method: as §1
# [6] = target: Neu5Ac(a2-3)Gal(b1-3)[Neu5Ac(a2-6)]GlcNAc(b1-3)[Fuc(a1-3)[Gal(b1-4)]GlcNAc(b1-6)]Gal(b1-4)Glc
# Summary of the method: as §1
# [7] = target: Neu5Ac(a2-3)Gal(b1-3)]Neu5Ac(a2-3)Gal(b1-4)]GlcNAc
# Summary of the method: as §1
# Neu5Ac(a2-3)Gal(b1-4)Glc = target: Neu5Ac(a2-3)Gal(b1-4)Glc
# Summary of the method: as §1
# [8] = target: Neu5Ac(a2-3)Gal(b1-4)GlcNAc
# Summary of the method: as §1
# [9] = target: Neu5Ac(a2-3)Gal(b1-4)GlcNAc(b1-2)Man
# Summary of the method: as §1
# [10] = target: Neu5Ac(a2-3)Gal(b1-4)GlcNAc(b1-2)Man(a1-3)[GlcNAc(b1-4)][Neu5Ac(a2-3)Gal(b1-4)GlcNAc(b1-2)Man(a1-6)]Man(b1-4)GlcNAc(b1-4)GlcNAc
# Summary of the method: as §1
# [11] = target: Neu5Ac(a2-3)Gal(b1-4)GlcNAc(b1-2)Man(a1-3)[Neu5Ac(a2-3)Gal(b1-4)GlcNAc(b1-2)Man(a1-6)]Man(b1-4)GlcNAc(b1-4)GlcNAc
# Summary of the method: as §1
# [12] = target: Neu5Ac(a2-3)Gal(b1-4)GlcNAc(b1-2)Man(a1-3)[Neu5Ac(a2-3)Gal(b1-4)GlcNAc(b1-2)Man(a1-6)]Man(b1-4)GlcNAc(b1-4)[Fuc(a1-6)]GlcNAc
# Summary of the method: as §1
# [13] = target: Neu5Ac(a2-3)Gal(b1-4)GlcNAc(b1-2)Man(a1-3)[Neu5Ac(a2-6)Gal(b1-4)GlcNAc(b1-2)Man(a1-6)]Man(b1-4)GlcNAc(b1-4)GlcNAc
# Summary of the method: as §1
# [14] = target: Neu5Ac(a2-3)Gal(b1-4)GlcNAc(b1-2)[Neu5Ac(a2-3)Gal(b1-4)GlcNAc(b1-2)]Man(a1-6)[Neu5Ac(a2-3)Gal(b1-4)GlcNAc(b1-2)Man(a1-3)][GlcNAc(b1-4)]Man(b1-4)GlcNAc(b1-4)GlcNAc
# Summary of the method: as §1
# [15] = target: Neu5Ac(a2-3)Gal(b1-4)GlcNAc(b1-2)[Neu5Ac(a2-3)Gal(b1-4)GlcNAc(b1-4)]Man(a1-3)[GlcNAc(b1-4)][Neu5Ac(a2-3)Gal(b1-4)GlcNAc(b1-2)[Neu5Ac(a2-3)Gal(b1-4)GlcNAc(b1-6)]Man(a1-6)]Man(b1-4)GlcNAc(b1-4)GlcNAc
# Summary of the method: as §1
# [16] = target: Neu5Ac(a2-3)Gal(b1-4)GlcNAc(b1-2)[Neu5Ac(a2-3)Gal(b1-4)GlcNAc(b1-4)]Man(a1-3)[GlcNAc(b1-4)][Neu5Ac(a2-3)Gal(b1-4)GlcNAc(b1-4)Man(a1-6)]Man(b1-4)GlcNAc(b1-4)GlcNAc
# Summary of the method: as §1
# [17] = target: Neu5Ac(a2-3)Gal(b1-4)GlcNAc(b1-2)[Neu5Ac(a2-3)Gal(b1-4)GlcNAc(b1-6)]Man(a1-6)[Neu5Ac(a2-3)Gal(b1-4)GlcNAc(b1-2)Man(a1-3)]Man(b1-4)GlcNAc(b1-4)GlcNAc
# Summary of the method: as §1
# [18] = target: Neu5Ac(a2-3)Gal(b1-4)GlcNAc(b1-3)Gal
# Summary of the method: as §1
# [19] = target: Neu5Ac(a2-3)Gal(b1-4)GlcNAc(b1-3)Gal(b1-3)GlcNAc
# Summary of the method: as §1
# [20] = target: Neu5Ac(a2-3)Gal(b1-4)GlcNAc(b1-3)Gal(b1-4)GlcNAc
# Summary of the method: as §1
# [21] = target: Neu5Ac(a2-3)Gal(b1-4)GlcNAc(b1-3)Gal(b1-4)GlcNAc(b1-2)Man(a1-3)[Neu5Ac(a2-3)Gal(b1-4)GlcNAc(b1-3)Gal(b1-4)GlcNAc(b1-2)Man(a1-6)]Man(b1-4)GlcNAc(b1-4)GlcNAc
# Summary of the method: as §1
# [22] = target: Neu5Ac(a2-3)Gal(b1-4)GlcNAc(b1-3)Gal(b1-4)GlcNAc(b1-3)Gal(b1-4)GlcNAc
# Summary of the method: as §1
# [23] = target: Neu5Ac(a2-3)Gal(b1-4)GlcNAc(b1-3)Gal(b1-4)GlcNAc(b1-3)Gal(b1-4)GlcNAc(b1-2)Man(a1-3)[Neu5Ac(a2-3)Gal(b1-4)GlcNAc(b1-3)Gal(b1-4)GlcNAc(b1-3)Gal(b1-4)GlcNAc(b1-2)Man(a1-6)]GalNAc
# Summary of the method: as §1
# [24] = target: Neu5Ac(a2-3)Gal(b1-4)GlcNAc(b1-3)Gal(b1-4)GlcNAc(b1-3)GalNAc
# Summary of the method: as §1
# [25] = target: Neu5Ac(a2-3)Gal(b1-4)GlcNAc(b1-3)Gal(b1-4)GlcNAc(b1-3)[Neu5Ac(a2-3)Gal(b1-4)GlcNAc(b1-3)Gal(b1-4)GlcNAc(b1-6)]GalNAc
# Summary of the method: as §1
# [26] = target: Neu5Ac(a2-3)Gal(b1-4)GlcNAc(b1-3)Gal(b1-4)GlcNAc(b1-6)[Gal(b1-3)]GalNAc
# Summary of the method: as §1
# [27] = target: Neu5Ac(a2-3)Gal(b1-4)GlcNAc(b1-3)Gal(b1-4)[Fuc(a1-3)]GlcNAc
# Summary of the method: as §1
# [28] = target: Neu5Ac(a2-3)Gal(b1-4)GlcNAc(b1-3)GalNAc
# Summary of the method: as §1
# [29] = target: Neu5Ac(a2-3)Gal(b1-4)GlcNAc(b1-3)[Neu5Ac(a2-3)Gal(b1-4)GlcNAc(b1-6)]GalNAc
# Summary of the method: as §1
binder,measurement,setting,value
B1,glycan array binding signal (z-score),[1],-0.281
same,glycan array binding signal (z-score),[2],-0.215
same,glycan array binding signal (z-score),[3],-0.344
same,glycan array binding signal (z-score),[4],-0.228
same,glycan array binding signal (z-score),[5],-0.107
same,glycan array binding signal (z-score),[6],-0.258
same,glycan array binding signal (z-score),[7],-0.281
same,glycan array binding signal (z-score),Neu5Ac(a2-3)Gal(b1-4)Glc,0.291
same,glycan array binding signal (z-score),[8],-0.236
same,glycan array binding signal (z-score),[9],0.164
same,glycan array binding signal (z-score),[10],-0.104
same,glycan array binding signal (z-score),[11],-0.275
same,glycan array binding signal (z-score),[12],-0.127
same,glycan array binding signal (z-score),[13],-0.106
same,glycan array binding signal (z-score),[14],-0.048
same,glycan array binding signal (z-score),[15],-0.091
same,glycan array binding signal (z-score),[16],-0.205
same,glycan array binding signal (z-score),[17],-0.017
same,glycan array binding signal (z-score),[18],-0.333
same,glycan array binding signal (z-score),[19],-0.206
same,glycan array binding signal (z-score),[20],-0.249
same,glycan array binding signal (z-score),[21],7.02
same,glycan array binding signal (z-score),[22],-0.137
same,glycan array binding signal (z-score),[23],9.05
same,glycan array binding signal (z-score),[24],-0.177
same,glycan array binding signal (z-score),[25],1.9
same,glycan array binding signal (z-score),[26],3.14
same,glycan array binding signal (z-score),[27],-0.183
same,glycan array binding signal (z-score),[28],-0.179
same,glycan array binding signal (z-score),[29],-0.323

# From the supplement of paper PMC8728848
